The list shows a part of the results.
T1: UNK ZnF1-3 (human, UniProt Q9C0B0 31-174)
T1 sequence: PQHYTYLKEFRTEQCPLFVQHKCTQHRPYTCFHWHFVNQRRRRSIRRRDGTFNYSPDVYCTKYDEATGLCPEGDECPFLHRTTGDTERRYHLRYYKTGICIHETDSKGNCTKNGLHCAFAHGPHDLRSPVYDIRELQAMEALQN

B1: chr20:46266449:46266450:+_ENSG00000124151_ENST00000372004|hu_hu|FALSE|FALSE (ssRNA)
RNA: GGGAGUUCUACAGUCCGACGAUCUUGCUUAGUCCCCAGAUGACUACCAUUUGAGGAUAUGGAAUUAUUGUAAAAGUCAGAACUAGUCAGAUCACCAAGAAUAGCAUCUAGAUUAUCCAAGUCUCCAGAUCCCUCUUCACUUGUCAACAGAGGAUUGAGCAUCA
B2: chr12:73313434:73313435:-_ENSMUSG00000021087_ENSMUST00000021497|mus_mus|FALSE|FALSE (ssRNA)
RNA: GGGAGUUCUACAGUCCGACGAUCCAUAUAUCCUAAGAGUACAGGAAGAGCCUCAAAACACCUGUCUCAAAGUUUGCCUCUAAGAUUAUGGUACCAGGAAAGGGAAACAAUCAAUUUGCAGUAACGAGGAAGGAGAGAGCUGUUCAACAGAGGAUUGAGCAUCA
B3: chr14:66974463:66974464:+_ENSMUSG00000022044_ENSMUST00000074523|mus_hu|mus_mus_mus_hu_False|28_88 (ssRNA)
RNA: GGGAGUUCUACAGUCCGACGAUCUUGUAGGACGACUUAUUCAGGGGAUCAGACAAGAAGCAGGAGCAGAACAAGGACACCAGCGGGAGCUCCUUCAUCUUCUCUUUAUAGGCUGCAAGGGUCAUGUUUCUGGGAUCUGGUGGCCAACAGAGGAUUGAGCAUCA
B4: chr7:138035701:138035702:+_ENSMUSG00000040268_ENSMUST00000120441|mus_mus|motif|central (ssRNA)
RNA: GGGAGUUCUACAGUCCGACGAUCUCCUGCAUUCAUAACAAAACAAAACUCUGCCUUUGGCCUUAACUUAGUUGCAUCGCGGACCUUUGAAAUGUAGGUAAGUUUAAUGGCUCCAACCCGUGACGAUCCUGAAGGCAGGUUCUGCAACAGAGGAUUGAGCAUCA
B5: chr12:46321692:46321693:-_ENSG00000139218_ENST00000369367|hu_mus|motif|central (ssRNA)
RNA: GGGAGUUCUACAGUCCGACGAUCGCUCUCUACAAAUGCUUCUAUGUUUACUGCAGAAUCGUUCAAGUCAGUACUUUCGGCAGUGAGACUCUCCCCUGUUCUUUCAUCGUUCAAGUCAGUACUUUCUACAGUGAGACUCUCCUCCAACAGAGGAUUGAGCAUCA
B6: 96632373_96634150_447_3pUTR_ENSMUSG00000020876_ENSMUST00000107661|mouse|control|control (ssRNA)
RNA: GGGAGUUCUACAGUCCGACGAUCGCUUCUCAAUGAACUCAUCGGAGCCGCCAAAGAAAGUGGACUUCCCAGGAAGCUCCGGAACAGGCACCAAGCCGGCGUUCCUCUGCAGCUGCUUCCUCAGCCACACAAACUCACGGUAGCCAACAGAGGAUUGAGCAUCA
B7: chr3:102850973:102850974:+_ENSMUSG00000068823_ENSMUST00000029446|mus_mus|FALSE|FALSE (ssRNA)
RNA: GGGAGUUCUACAGUCCGACGAUCACGAUGAUCUGAAUGGGAAUGGAAUGAAACCGUGCCCUUGGGAAGUUUUUUAAUCCUAAUAGCAUGAUUUCUUUGGGCAGAGAGCAUAUCAGGAACCACAGUAAACUCUACUUCAUCUGCCAACAGAGGAUUGAGCAUCA
B8: chr4:40633508:40633509:-_ENSMUSG00000028411_ENSMUST00000129021|mus_mus|motif|central (ssRNA)
RNA: GGGAGUUCUACAGUCCGACGAUCGAAGAAGUGUACGCUUUAGUUCAGGAUUGAACGGAGCAUAGGCAAUGCGGACAGAUGCGGGCACUGCCCUUGGUCGCCGAGACGAGUGUCACCCGCCCCAGUGCUUCCUGAGGUGCUCUUCAACAGAGGAUUGAGCAUCA
B9: chr17:45747064:45747065:+_ENSG00000108424_ENST00000290158|hu_hu|hu_hu_hu_mus_True|18_108 (ssRNA)
RNA: GGGAGUUCUACAGUCCGACGAUCGCCUACAGUCCAUGCUGUUGUGUCUCGAACAACUACACUGGGGUCUUUCAUUAGUUCUAUUAGGGUGGGCAUAGCCUGUAUGACUAAUGGUUUGAGCUGACUGGGCUCUGGUCCUUCCAACAACAGAGGAUUGAGCAUCA
B10: chr8:21939936:21939937:+_ENSG00000158856_ENST00000443491|hu_mus|FALSE|FALSE (ssRNA)
RNA: GGGAGUUCUACAGUCCGACGAUCUCCCAGCAUGAUCACACACACAGUGGACAGGGAGUGCCAGGGUCUGGGUAAAAACGAAACCCAGACCUGGGCAAAAUAGAUAUAUAUAUAUGUAUAAUUAUAUACACGUACAUAUGUGGACAACAGAGGAUUGAGCAUCA
B11: chr16:33771563:33771564:+_ENSMUSG00000075254_ENSMUST00000152782|mus_hu|FALSE|FALSE (ssRNA)
RNA: GGGAGUUCUACAGUCCGACGAUCCAGACUUAGAGUGGAUAUAAGUAUAAAAAUAACCAAAUUCUUACAAAUAAUACUUUGCUGCUACAGUACUGAAUAAUUAGUGGAGGUUGCAAUUAUAAUACAACUUUAAAUAACAUUCUCCAACAGAGGAUUGAGCAUCA
B12: chr7:90019206:90019207:+_ENSMUSG00000057706_ENSMUST00000082237|mus_hu|FALSE|FALSE (ssRNA)
RNA: GGGAGUUCUACAGUCCGACGAUCUUUAAUAAAGCUGCAGUAUCCUGGUUUCACAGGAACUCCUGGCCCUUCCACGAACAUUCAAAAAGGAUCCACUGUGUUCUAUAAUAAGUAUCAUAGGAACCCACCCACAAAGGGGAACACCAACAGAGGAUUGAGCAUCA
B13: chr3:9412954:9412955:+_ENSG00000134077_ENST00000452837|hu_mus|hu_hu_hu_mus_False|1_68 (ssRNA)
RNA: GGGAGUUCUACAGUCCGACGAUCGGUUGAUAUCUCUUCUUUGAUGGCUGGAUUUUCAUAAUAGUCCAAGAUAUGAGAAUCUGAAGUGCUGCUGGCAUGCUUUUUCUUACCAUCUUUCUCAUCUGCUUUGUCUCCUUGUCCAUUCAACAGAGGAUUGAGCAUCA
B14: chr19:21355511:21355512:+_ENSMUSG00000024750_ENSMUST00000025659|mus_hu|motif|central (ssRNA)
RNA: GGGAGUUCUACAGUCCGACGAUCCAUUUCUUCCUGCUUCCAAAGAAUAUGUUGUGAAAUUAAAGAGGGUGAAGUUUAACGGUGGUAGAAGUAGACUGCCAGUCCUUUUCUGGUGUACCAUUUUAAAAAAAUACAGGCACAUAACAACAGAGGAUUGAGCAUCA
B15: chr1:163112212:163112213:-_ENSG00000143248_ENST00000313961|hu_hu|hu_hu_hu_mus_False|1_78 (ssRNA)
RNA: GGGAGUUCUACAGUCCGACGAUCUUUUAUUAUCAGUAAGAGUGAGUUACAUACUAGAUAAAGUAUUGGAUACAAUAAUCAGGAAACAAACACUAUUGGUCCAGAAUUUAAAACUUUAUGAGCGAAGUGCUGGCACAGGAUUUACAACAGAGGAUUGAGCAUCA
B16: chr3:10015032:10015033:+_ENSMUSG00000027533_ENSMUST00000029046|mus_mus|mus_mus_mus_hu_True|48_88 (ssRNA)
RNA: GGGAGUUCUACAGUCCGACGAUCGUUUUUACCAUCACAAGUGAUGAUACAGUCUGGCUUGGCCAUUGCGCCCAUUUUUCGCAAAGCCAGUCCUACUCCUAGCUCCUUCAUGUAUUCAUCAAAGCCUUUGCUGUCCACCAGGCGCAACAGAGGAUUGAGCAUCA
B17: chr3:148802587:148802588:-_ENSG00000071794_ENST00000310053|hu_mus|hu_hu_hu_mus_False|58_108 (ssRNA)
RNA: GGGAGUUCUACAGUCCGACGAUCUCCAACCACAUGACCUCUCAUAGUUCCAAAUAAAACCAAAUCUUGCUCUUCAUCACUAGUUAGGAAGUCAUCUGGAGGAAUAAUGUCUUGGAAUUCAAAAUGUGGCAAGAAAGUUGAGUACAACAGAGGAUUGAGCAUCA
B18: 130596237_130596357_540_3pUTR_ENSMUSG00000031256_ENSMUST00000033609|mouse|control|control (ssRNA)
RNA: GGGAGUUCUACAGUCCGACGAUCCAUCAACUCAAACAUCUGUUCUGGUGGAAGACUGGCAACUGCUUUGCUAAUGGAUUCAGGGGCAUCCUCAGGGCUGAUGCUUUCUCCAUAAGGUGACUCUAUGACAGGUGCACCAGUGCCCAACAGAGGAUUGAGCAUCA
B19: chr15:81306141:81306142:+_ENSMUSG00000022400_ENSMUST00000023036|mus_mus|FALSE|FALSE (ssRNA)
RNA: GGGAGUUCUACAGUCCGACGAUCAGUACCUGGGAUUACAGGCAUAUAUGCAAACUGUCCAAACAUCAGUUUUCAGGUGAACUUUAUGAUGACUUUAUUGCCAGCCAAGAUUACACAGUACGAUUUUUUGGGUCAACUUUUGUUCAACAGAGGAUUGAGCAUCA
B20: chr11:29999759:29999760:-_ENSMUSG00000020315_ENSMUST00000011877|mus_mus|FALSE|FALSE (ssRNA)
RNA: GGGAGUUCUACAGUCCGACGAUCAUACACUUAGCAAUGAUUUAAAGGGUUUAUUAUACAUCUAGUUUAUUAUACUUUGUACUAGAAUUAUCUCAAACAUACAAUAUAAUGUAUUUCAGAAAAAAAGAGACUGAAAUUACAGAUCAACAGAGGAUUGAGCAUCA
B21: 31148763_31148883_1967_3pUTR_ENSMUSG00000062661_ENSMUST00000000199|mouse|control|control (ssRNA)
RNA: GGGAGUUCUACAGUCCGACGAUCACAUGCCACACCUACCCAGCCUCUUAGCAUCAGGGAGGCUGAGGCCAGCAGUUUGCAGGGAAACCCACUUCAUACGCUCUCUACUGUGUGCCGGACACACUCUCCUAGCUCCUACUCUCACAACAGAGGAUUGAGCAUCA
B22: chr14:35182089:35182090:-_ENSG00000165410_ENST00000422678|hu_mus|FALSE|FALSE (ssRNA)
RNA: GGGAGUUCUACAGUCCGACGAUCCUUAAGAUCAAAUGGCACUUGGCUAUUAUUUUAUAGUGGCUUUCCUUCAAGGGAAACUACAACACUGCCCCCCAGUUUCUCUCCCAGCGUCGAGCGGUCCUUAAUAUCGUCCAAGCCAUUCAACAGAGGAUUGAGCAUCA

The binders below were run against T1, UNK ZnF1-3 (assay: nsRBNS (natural sequence RNA bind-n-seq); RBNS binding buffer (assumed for nsRBNS): 25 mM Tris pH 7.5, 150 mM KCl, 3 mM MgCl2, 0.01% Triton X-100, 500 ug/ml BSA, 20 U/ml SUPERase-In, 4 C; UNK is unkempt and MSI1 is Musashi-1; names of the RNAs are library labels; protein concentration not given here; high values mean tight binding).

Row | Binder | binding signal
1 | B1 | 1.02 enrichment R
2 | B2 | 2.3 enrichment R
3 | B3 | 1.77 enrichment R
4 | B4 | 0.851 enrichment R
5 | B5 | 0.581 enrichment R
6 | B6 | 0.85 enrichment R
7 | B7 | 1.24 enrichment R
8 | B8 | 0.643 enrichment R
9 | B9 | 0.898 enrichment R
10 | B10 | 0.543 enrichment R
11 | B11 | 1.49 enrichment R
12 | B12 | 1.27 enrichment R
13 | B13 | 0.438 enrichment R
14 | B14 | 0.998 enrichment R
15 | B15 | 0.98 enrichment R
16 | B16 | 0.652 enrichment R
17 | B17 | 1.2 enrichment R
18 | B18 | 1.6 enrichment R
19 | B19 | 0.605 enrichment R
20 | B20 | 1.2 enrichment R
21 | B21 | 1.14 enrichment R
22 | B22 | 1.08 enrichment R
